This is one part of the list.
Key:
Test in all cases: glycan array binding signal (z-score within array); higher = stronger binding
Conditions in all cases: glycan notation: IUPAC condensed, linker removed
[1] = target: Man(a1-2)Man(a1-2)Man(a1-3)Man
In short: (§1)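 Columns mapping to the same glycan were averaged after glycan names were converted to IUPAC-condensed notation. The data come from 3228 arrays in the Consortium for Functional Glycomics database, limited to those with an available protein sequence. Binding is reported as a within-array Z-score averaged across arrays of one protein sequence and across linkers.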

[2] = target: Man(a1-2)Man(a1-2)Man(a1-6)[Man(a1-3)]Man
In short: as §1

Man(a1-2)Man(a1-3)Man = target: Man(a1-2)Man(a1-3)Man
In short: as §1

[3] = target: Man(a1-2)Man(a1-3)[Man(a1-2)Man(a1-6)]Man
In short: as §1

[4] = target: Man(a1-2)Man(a1-3)[Man(a1-2)Man(a1-6)]Man(a1-6)[Man(a1-2)Man(a1-2)Man(a1-3)]Man
In short: as §1

[5] = target: Man(a1-2)Man(a1-3)[Man(a1-2)Man(a1-6)]Man(a1-6)[Man(a1-2)Man(a1-2)Man(a1-3)]Man(b1-4)GlcNAc(b1-4)GlcNAc
In short: as §1

[6] = target: Man(a1-2)Man(a1-3)[Man(a1-6)]Man(a1-6)[Man(a1-2)Man(a1-3)]Man(b1-4)GlcNAc(b1-4)GlcNAc
In short: as §1

[7] = target: Man(a1-2)Man(a1-6)[Man(a1-3)]Man(a1-6)[Man(a1-2)Man(a1-2)Man(a1-3)]Man
In short: as §1

[8] = target: Man(a1-2)Man(a1-6)[Man(a1-3)]Man(a1-6)[Man(a1-2)Man(a1-2)Man(a1-3)]Man(b1-4)GlcNAc(b1-4)GlcNAc
In short: as §1

Man(a1-3)[Man(a1-6)]Man = target: Man(a1-3)[Man(a1-6)]Man
In short: as §1

[9] = target: Man(a1-3)[Man(a1-6)]Man(a1-6)[Man(a1-2)Man(a1-3)]Man(b1-4)GlcNAc(b1-4)GlcNAc
In short: as §1

[10] = target: Man(a1-3)[Man(a1-6)]Man(a1-6)[Man(a1-3)]Man
In short: as §1

[11] = target: Man(a1-3)[Man(a1-6)]Man(a1-6)[Man(a1-3)]Man(b1-4)GlcNAc(b1-4)GlcNAc
In short: as §1

[12] = target: Man(a1-3)[Man(a1-6)]Man(b1-4)GlcNAc(b1-4)GlcNAc
In short: as §1

Man(a1-6)Man = target: Man(a1-6)Man
In short: as §1

Man(b1-4)GlcNAc = target: Man(b1-4)GlcNAc
In short: as §1

Neu5Ac(a2-3)Gal = target: Neu5Ac(a2-3)Gal
In short: as §1

[13] = target: Neu5Ac(a2-3)Gal(b1-3)GalNAc
In short: as §1

[14] = target: Neu5Ac(a2-3)Gal(b1-3)GalNAc(b1-3)Gal(a1-4)Gal(b1-4)Glc
In short: as §1

[15] = target: Neu5Ac(a2-3)Gal(b1-3)GalNAc(b1-3)Gal(b1-4)GlcNAc
In short: as §1

[16] = target: Neu5Ac(a2-3)Gal(b1-3)GalNAc(b1-4)[Neu5Ac(a2-3)]Gal(b1-4)Glc
In short: as §1

[17] = target: Neu5Ac(a2-3)Gal(b1-3)GalNAc6S
In short: as §1

[18] = target: Neu5Ac(a2-3)Gal(b1-3)GlcNAc
In short: as §1

[19] = target: Neu5Ac(a2-3)Gal(b1-3)GlcNAc(b1-3)Gal(b1-3)GlcNAc
In short: as §1

[20] = target: Neu5Ac(a2-3)Gal(b1-3)GlcNAc6S
In short: as §1

[21] = target: Neu5Ac(a2-3)Gal(b1-3)[Fuc(a1-4)]GlcNAc
In short: as §1

[22] = target: Neu5Ac(a2-3)Gal(b1-3)[Fuc(a1-4)]GlcNAc(b1-3)Gal(b1-3)[Fuc(a1-4)]GlcNAc
In short: as §1

[23] = target: Neu5Ac(a2-3)Gal(b1-3)[Fuc(a1-4)]GlcNAc(b1-3)Gal(b1-4)[Fuc(a1-3)]GlcNAc
In short: as §1

[24] = target: Neu5Ac(a2-3)Gal(b1-3)[Neu5Ac(a2-3)Gal(b1-4)]GlcNAc
In short: as §1

[25] = target: Neu5Ac(a2-3)Gal(b1-3)[Neu5Ac(a2-6)]GalNAc
In short: as §1

Neu5Ac(a2-3)Gal(b1-4)Glc = target: Neu5Ac(a2-3)Gal(b1-4)Glc
In short: as §1

[26] = target: Neu5Ac(a2-3)Gal(b1-4)GlcNAc
In short: as §1

[27] = target: Neu5Ac(a2-3)Gal(b1-4)GlcNAc(b1-2)Man(a1-3)[GlcNAc(b1-2)Man(b1-4)GlcNAc(b1-2)Man(a1-6)]Man(b1-4)GlcNAc(b1-4)GlcNAc
In short: as §1

[28] = target: Neu5Ac(a2-3)Gal(b1-4)GlcNAc(b1-2)Man(a1-3)[Neu5Ac(a2-6)Gal(b1-4)GlcNAc(b1-2)Man(a1-6)]Man(b1-4)GlcNAc(b1-4)GlcNAc
In short: as §1

[29] = target: Neu5Ac(a2-3)Gal(b1-4)GlcNAc(b1-3)Gal(b1-3)GlcNAc
In short: as §1

[30] = target: Neu5Ac(a2-3)Gal(b1-4)GlcNAc(b1-3)Gal(b1-4)GlcNAc
In short: as §1

[31] = target: Neu5Ac(a2-3)Gal(b1-4)GlcNAc(b1-3)Gal(b1-4)GlcNAc(b1-3)Gal(b1-4)GlcNAc
In short: as §1

B1: Flo5 (Saccharomyces cerevisiae), P38894 (protein)
chain: MGSSHHHHHHSSGLVPRGSHMSGATEACLPAGQRKSGMNINFYQYSLKDSSTYSNAAYMAYGYASKTKLGSVGGQTDISIDYNIPCVSSSGTFPCPQEDSYGNWGCKGMGACSNSQGIAYWSTDLFGFYTTPTNVTLEMTGYFLPPQTGSYTFSFATVDDSAILSVGGSIAFECCAQEQPPITSTNFTINGIKPWDGSLPDNITGTVYMYAGYYYPLKVVYSNAVSWGTLPISVELPDGTTVSDNFEGYVYSFDDDLSQSNCTIPDPSIH
With B1 the “glycan array binding signal (z-score)” value [1] was 6.07, the “glycan array binding signal (z-score)” value [2] was -0.079 and the “glycan array binding signal (z-score)” value (Man(a1-2)Man(a1-3)Man) was -0.101. The “glycan array binding signal (z-score)” value [3] was -0.141, the “glycan array binding signal (z-score)” value [4] was -0.064 and the “glycan array binding signal (z-score)” value [5] was -0.127. The “glycan array binding signal (z-score)” value [6] was -0.127, the “glycan array binding signal (z-score)” value [7] was -0.132 and the “glycan array binding signal (z-score)” value [8] was -0.205. The “glycan array binding signal (z-score)” value (Man(a1-3)[Man(a1-6)]Man) was 0.724, the “glycan array binding signal (z-score)” value [9] was -0.177 and the “glycan array binding signal (z-score)” value [10] was 3.11. For the same binder, the “glycan array binding signal (z-score)” value [11] was 0.132, the “glycan array binding signal (z-score)” value [12] was -0.11 and the “glycan array binding signal (z-score)” value (Man(a1-6)Man) was -0.114. For the same binder, the “glycan array binding signal (z-score)” value (Man(b1-4)GlcNAc) was -0.19, the “glycan array binding signal (z-score)” value (Neu5Ac(a2-3)Gal) was -0.181 and the “glycan array binding signal (z-score)” value [13] was -0.203. For the same binder, the “glycan array binding signal (z-score)” value [14] was -0.126, the “glycan array binding signal (z-score)” value [15] was -0.218 and the “glycan array binding signal (z-score)” value [16] was -0.152. For the same binder, the “glycan array binding signal (z-score)” value [17] was 0.434, the “glycan array binding signal (z-score)” value [18] was -0.262 and the “glycan array binding signal (z-score)” value [19] was 0.525. For the same binder, the “glycan array binding signal (z-score)” value [20] was -0.161, the “glycan array binding signal (z-score)” value [21] was -0.153 and the “glycan array binding signal (z-score)” value [22] was -0.223. For the same binder, the “glycan array binding signal (z-score)” value [23] was -0.286, the “glycan array binding signal (z-score)” value [24] was -0.169 and the “glycan array binding signal (z-score)” value [25] was -0.165. For the same binder, the “glycan array binding signal (z-score)” value (Neu5Ac(a2-3)Gal(b1-4)Glc) was -0.16, the “glycan array binding signal (z-score)” value [26] was -0.167 and the “glycan array binding signal (z-score)” value [27] was -0.19. The “glycan array binding signal (z-score)” value [28] was -0.182, the “glycan array binding signal (z-score)” value [29] was -0.073 and the “glycan array binding signal (z-score)” value [30] was -0.114. The “glycan array binding signal (z-score)” value [31] was 0.027.

— the supplement of paper PMC8728848
